Assay results reported in the DeepSol protein solubility set.

Assay: soluble on expression in E. coli; label from the status in PepcDB or PDB records

MKVNPFVSSDSGKSRKAHFNAPSHERRRIMSAPLTKELRTKHGIRAIPIRTDDEVVVMRGRHKGNTGRVLRCYRKKFVIHIDKITREKANGSTVHIGIHPSKVRFV
soluble on expression in E. coli: not soluble

MGHHHHHHGGHMSLARIHARRRGKSGSKRIYRDSPPEWVDMSPEEVEKKVLELYNEGYEPSMIGMILRDRYGIPSVKQVTGKKIQKILKEHGVEIKYPEDLKALIKKALKLRAHLEVHRKDKHNRRGLQLIEAKIWRLSSYYKEKGVLPADWKYNPDRLKIEISKEGGS
soluble on expression in E. coli: soluble

MGIDINHKHDRVARRTAPKSENPYLRLLSKLYAFLARRTGEKFNAIVLKRLRMSRRNRQPLSLAKLARAVQKAGNENKTVVTLSTVTDDARLYTVPKISVAALHVTEGARARILAAGGEIITLDQLALKSPKGENTVFLQGPRSAREAEKHFGPAPGVPHSHTKPYVRSKGRKFERARGRRASRAYKN
soluble on expression in E. coli: not soluble

GPHMYEAPPATLEAIHPKGLRVSVPDEGFSLFAFHGKLNEEMEGLEAGHWSRDITKPKNGRWIFRDRNAALKIGDKIYFWTFVIKDGLGYRQDNGEWTVEGFVDEA
soluble on expression in E. coli: soluble

MNTQQLAKLRSIVPEMRRVRHIHFVGIGGAGMGGIAEVLANEGYQISGSDLAPNPVTQQLTSLGATIFFNHRPENVRDASVVVVSSAISADNPEIVAAHEARIPVIRRAEMLAELMRFRHGIAIAGTHGKTTTTAMVSSIYAEAGLDPTFVNGGLVKAAGVHARLGHSRYLIAEADESDASFLHLQPMVAIVTNIEADHMDTYHGDFENLKQTFINFLHNLPFYGRAVMCVDDPVIRELLPRVGRQTTTYGFSEDADVRVEDYQQIGPQGHFTLLRQGMPDLHVTLNAPGRHNALNAAAAVAVATEEGIADDAILRALESFQGTGRRFDFLGEFPLEPVNGKAGTAMLVDDYGHHPTEVDATIKAARAGWPDKNLVMLFQPHRYTRTRDLYDDFANVLTQVDALLMLDVYPAGEAPIPGADSRSLCRTIRNRGKIDPILVSDPAQVATMLAPVLTGNDLILVQGAGNVGKIARYLSEIKLKPQIQEEEQHG
soluble on expression in E. coli: not soluble

MAEKVAVLLGGTSAEREVSLLSGQAVLAGLKEAGIDAYGVDTKDFPVTQLKEQGFDKVFIALHGRGGEDGTLQGVLEFLQLPYTGSGVMASALTMDKLRTKLVWQALGLPISPYVALNRQQFETLSPEELVACVAKLGLPLIVKPSHEGSSVGMSKVDHASELQKALVEAFQHDSDVLIEKWLSGPEFTVAILGDEVLPSIRIQPPGVFYDYDAKYLSDKTQYFCPSGLSDESEQQLAALALQAYHALDCSGWGRVDVMQDRDGHFYLLEVNTSPGMTSHSLVPMAARQYGLSFSQLVARILMLAD
soluble on expression in E. coli: not soluble

MVIGVIFYNTKGNFLRVKCLDCGNQQVVFDRAASYVQCIICGKTLVEPTGGKSKIKAQILEVLD
soluble on expression in E. coli: not soluble
